The whole screen tested about 310,000 compounds, of which about 2,200 (0.71%) showed an effect of 50% or more. Effects have a minus sign here. The list shows a part of the results.

For the experiment, the target named is human ether-à-go-go-related gene (hERG) potassium channel (human, UniProt Q12809). The experiment can be described thus: primary screen, population patch clamp on CHO cells stably expressing hERG.
Chain of human ether-à-go-go-related gene (hERG) potassium channel (Q12809 whole entry, looked up): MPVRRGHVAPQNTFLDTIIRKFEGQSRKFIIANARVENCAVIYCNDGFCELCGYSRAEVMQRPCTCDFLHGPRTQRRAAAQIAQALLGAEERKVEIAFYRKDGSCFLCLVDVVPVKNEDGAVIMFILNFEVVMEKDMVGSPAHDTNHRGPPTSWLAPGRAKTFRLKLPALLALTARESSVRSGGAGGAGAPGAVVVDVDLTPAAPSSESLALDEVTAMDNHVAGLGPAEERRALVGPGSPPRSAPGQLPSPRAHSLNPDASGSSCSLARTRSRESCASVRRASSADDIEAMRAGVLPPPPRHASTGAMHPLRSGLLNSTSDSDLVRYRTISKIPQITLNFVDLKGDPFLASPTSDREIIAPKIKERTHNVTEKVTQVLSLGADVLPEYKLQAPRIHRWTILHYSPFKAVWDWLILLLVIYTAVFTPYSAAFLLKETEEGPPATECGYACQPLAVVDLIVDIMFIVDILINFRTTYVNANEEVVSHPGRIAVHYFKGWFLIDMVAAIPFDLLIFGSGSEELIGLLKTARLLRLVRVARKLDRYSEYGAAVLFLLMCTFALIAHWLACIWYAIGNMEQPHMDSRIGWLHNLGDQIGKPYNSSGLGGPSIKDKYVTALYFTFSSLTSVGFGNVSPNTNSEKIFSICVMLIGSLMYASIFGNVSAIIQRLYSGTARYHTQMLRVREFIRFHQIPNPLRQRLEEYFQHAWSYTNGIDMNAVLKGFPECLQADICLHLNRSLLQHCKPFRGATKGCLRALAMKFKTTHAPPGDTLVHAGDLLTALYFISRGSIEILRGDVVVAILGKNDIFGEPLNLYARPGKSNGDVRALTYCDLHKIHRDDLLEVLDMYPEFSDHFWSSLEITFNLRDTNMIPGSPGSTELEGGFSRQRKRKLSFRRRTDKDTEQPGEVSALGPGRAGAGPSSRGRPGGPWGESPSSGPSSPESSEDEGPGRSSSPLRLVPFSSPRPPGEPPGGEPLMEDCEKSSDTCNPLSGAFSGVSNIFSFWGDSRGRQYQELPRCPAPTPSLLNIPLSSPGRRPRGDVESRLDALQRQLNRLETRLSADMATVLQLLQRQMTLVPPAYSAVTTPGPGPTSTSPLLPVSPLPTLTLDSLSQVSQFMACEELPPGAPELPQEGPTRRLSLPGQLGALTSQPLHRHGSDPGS
With `O=C(CCNC(=O)c1ccc(Cl)cc1)Nc1ccc(Cl)cc1F`, the “hERG current change (%, negative = inhibition) at 1uM” value is 11.1%.

Consider `CCN(CC)S(=O)(=O)c1ccc(C(=O)OCCN2C(=O)CCC2=O)cc1`, for which the “hERG current change (%, negative = inhibition) at 1uM” value was 0.401%.

`CCOC(=O)N1CCN(C(=O)C2CCN(S(=O)(=O)c3ccc(Cl)cc3)CC2)CC1`: the “hERG current change (%, negative = inhibition) at 1uM” value is on record as -22.3%.

Regarding `O=C(O)c1cc2nc3c(c(C(F)(F)F)n2n1)CCc1ccccc1-3`, the “hERG current change (%, negative = inhibition) at 1uM” value came to 9.66%.

As for `CCOC(=O)c1sc(NC(=O)C(CC)Sc2nccn2C)nc1C` (stereo not drawn), the “hERG current change (%, negative = inhibition) at 1uM” value is recorded as 6.94%.

Take `Cc1ccc(-c2nnn(CC(=O)N(CCN3CCOCC3)C(C(=O)NC3CCCC3)c3ccncc3)n2)o1` (stereo not drawn): the “hERG current change (%, negative = inhibition) at 1uM” value is listed as 0.175%.

`O=C(CSc1nncs1)NC(=O)NCc1ccco1`: the “hERG current change (%, negative = inhibition) at 1uM” value was found to be 16.8%.

For the compound `CCOC(=O)C1=C(c2ccccc2)N=C2SCC(=O)N2C1c1ccc(OCC)c(OCC)c1` (stereo not drawn), the “hERG current change (%, negative = inhibition) at 1uM” value came to 9.14%.

On to `COc1ccccc1C(=O)Nc1ccnn1C1CCN(Cc2cnn(C)c2)CC1`, for which the “hERG current change (%, negative = inhibition) at 1uM” value was -27%.

Consider `O=C(c1cn(Cc2ccccc2)nc1-c1cccnc1)N1CCN(Cc2ccccc2)CC1`, for which the “hERG current change (%, negative = inhibition) at 1uM” value is reported as -2.3%.

`O=C(CN1CCC(NC(=O)c2ccccc2F)CC1)NCc1ccc(F)cc1`: the “hERG current change (%, negative = inhibition) at 1uM” value was -5.88%.

Regarding `COc1ccc(C(C)=O)cc1COC(=O)Cc1n[nH]c(=O)c2ccccc12`, the “hERG current change (%, negative = inhibition) at 1uM” value was -2.68%.

As for `O=[N+]([O-])c1cccc(C(O)C23CN4CN(CN(C4)C2)C3)c1` (stereo not drawn), the “hERG current change (%, negative = inhibition) at 1uM” value stood at 7.23%.

On to `Cc1ccccc1CC(=O)N1CCN(S(=O)(=O)c2cccs2)CC1`, for which the “hERG current change (%, negative = inhibition) at 1uM” value was determined as 8.12%.

As to `COc1ccc(NC(=O)C(NC(=O)c2ccccc2)C(C)C)cc1` (stereo not drawn), the “hERG current change (%, negative = inhibition) at 1uM” value was 1.26%.

Regarding `CC(NC(=O)COc1ccccc1F)C1CC2CCC1C2` (stereo not drawn), the “hERG current change (%, negative = inhibition) at 1uM” value turned out to be 17.5%.

In the case of `CC(=O)NCCc1nc2ccccc2n1CCOc1ccc(C)cc1`, the “hERG current change (%, negative = inhibition) at 1uM” value was 0.792%.

For `COc1ccc(NS(=O)(=O)c2ccc(N3C(=O)CCC3=O)cc2)cc1`, the “hERG current change (%, negative = inhibition) at 1uM” value was found to be 10.2%.

With `COc1ccc(CN(C(=O)c2snc(C(N)=O)c2N)C(C)C(=O)NCc2ccc(F)cc2)cc1` (stereo not drawn), the “hERG current change (%, negative = inhibition) at 1uM” value is listed as -7.36%.

As to `Cc1ccn(C(CC(=O)c2ccc(Br)cc2)C(=O)O)n1` (stereo not drawn), the “hERG current change (%, negative = inhibition) at 1uM” value amounted to 4.04%.

As for `Cc1c(NS(=O)(=O)c2cccs2)c(=O)n(-c2ccccc2)n1C`, the “hERG current change (%, negative = inhibition) at 1uM” value stood at 8.31%.

Consider `COc1ccccc1N1C(=O)CC(Sc2ncccc2C(=O)O)C1=O` (stereo not drawn), for which the “hERG current change (%, negative = inhibition) at 1uM” value was 7.98%.

Turning to `CCOC(=O)C1CCN(C(=O)Cc2c(C(=O)O)[nH]c3ccccc23)CC1`, the “hERG current change (%, negative = inhibition) at 1uM” value is 5.01%.

Take `C=CCc1ccc(OCCOCCOc2cccc3cccnc23)c(OC)c1`: the “hERG current change (%, negative = inhibition) at 1uM” value is listed as 10.7%.

As to `CCN1CCN(c2nc(-c3ccccc3)nc3ccccc23)CC1`, the “hERG current change (%, negative = inhibition) at 1uM” value is given as -30.4%.

As to `CCCN(CCC)CCNC(=O)c1cc2c(=O)n(CC)c3ccccc3c2s1`, the “hERG current change (%, negative = inhibition) at 1uM” value is 8.38%.

Regarding `CCN1CCN(CCNC(=O)C2CCN(Cc3nc(-c4ccc(Cl)cc4)oc3C)CC2)CC1`, the “hERG current change (%, negative = inhibition) at 1uM” value is 7.22%.

On to `Cc1cc(C)n(-c2nc3c(c(=O)[nH]c(=O)n3C)n2CCc2ccccc2)n1`, for which the “hERG current change (%, negative = inhibition) at 1uM” value is listed as -0.649%.

`COC(=O)c1cc(-c2cccs2)nc2ccccc12`: the “hERG current change (%, negative = inhibition) at 1uM” value is listed as 7.7%.

On to `CC(C)C(=O)Nc1ccc(C(=O)NNC(=O)c2ccco2)cc1`, for which the “hERG current change (%, negative = inhibition) at 1uM” value worked out at 7.82%.

On to `CC(=O)c1cccc(N/C=C\C(=O)c2ccc(C)cc2)c1`, for which the “hERG current change (%, negative = inhibition) at 1uM” value is listed as 15.2%.

Take `COc1ccc(-n2c(Cn3c(=O)sc4ccccc43)nnc2SCC(N)=O)cc1`: the “hERG current change (%, negative = inhibition) at 1uM” value came to 10.9%.

With `COc1cc(/C=C(\NC(C)=O)C(=O)O)cc(OC)c1OC`, the “hERG current change (%, negative = inhibition) at 1uM” value is on record as 11.3%.

As to `COc1ccccc1N1CCN(C(=O)C2CCN(S(=O)(=O)c3ccc4c(c3)CC(C)N4C(C)=O)CC2)CC1` (stereo not drawn), the “hERG current change (%, negative = inhibition) at 1uM” value came to 12.9%.

`CCOc1ccc2ccccc2c1/C=N/NC(=O)c1cc(C)[nH]n1`: the “hERG current change (%, negative = inhibition) at 1uM” value was determined as 11.4%.

Take `O=C(O)c1ccccc1OCCOc1ccccc1C(=O)O`: the “hERG current change (%, negative = inhibition) at 1uM” value is 20.4%.

Take `S=C(NCCc1ccccc1)N1CCN(C2CCCCC2)CC1`: the “hERG current change (%, negative = inhibition) at 1uM” value is given as -8.38%.

Turning to `COC(=O)c1sc2ncn(-n3c(C)ccc3C)c(=O)c2c1C`, the “hERG current change (%, negative = inhibition) at 1uM” value was determined as 16%.

On to `O=C1c2ccccc2C(=O)N1CCCCCCc1ccccc1`, for which the “hERG current change (%, negative = inhibition) at 1uM” value is on record as 11.4%.

As to `Cc1cc(C)nc(NS(=O)(=O)c2ccc(NC(=O)Cc3ccccc3F)cc2)n1`, the “hERG current change (%, negative = inhibition) at 1uM” value was 17.8%.

As to `Cc1cccc(C)c1NC(=O)Nc1cccs1`, the “hERG current change (%, negative = inhibition) at 1uM” value was 13.7%.

Consider `O=C(CN(Cc1ccccc1)S(=O)(=O)c1ccc2c(c1)OCCO2)N/N=C/c1ccc(F)cc1`, for which the “hERG current change (%, negative = inhibition) at 1uM” value stood at 2.99%.

In the case of `Cc1cc(Cl)ccc1OCC(=O)Nc1ccccc1CO`, the “hERG current change (%, negative = inhibition) at 1uM” value was 14.4%.

Regarding `COc1ccc2c(c1OC)C(=O)N1C2SC(C)(C)[C@H]1C(=O)NCC(C)C` (stereo partly drawn), the “hERG current change (%, negative = inhibition) at 1uM” value amounted to 16.7%.

As to `CCOC(=O)c1cccc(NC(=O)COC)c1`, the “hERG current change (%, negative = inhibition) at 1uM” value was 13.7%.

Source of the values: article PMC4336329 (PLoS ONE, 2015).
